Test results: PMC11637378, “Optogenetic screening of MCT1 activity implicates a cluster of non-steroidal anti-inflammatory drugs (NSAIDs) as inhibitors of lactate transport” (PLOS ONE, 2024)
Values joined by “and” are separate entries in the source; they are usually repeats but may differ in a detail not shown here. Equal entries are not always repeated.

Each molecule was assayed against T1, R. norvegicus MCT1 (F360C) (UniProt P36035+P53987, F360C). Conditions: not given.
T1 sequence (P36035+P53987 with tags, fused parts or gaps P53987:F360C): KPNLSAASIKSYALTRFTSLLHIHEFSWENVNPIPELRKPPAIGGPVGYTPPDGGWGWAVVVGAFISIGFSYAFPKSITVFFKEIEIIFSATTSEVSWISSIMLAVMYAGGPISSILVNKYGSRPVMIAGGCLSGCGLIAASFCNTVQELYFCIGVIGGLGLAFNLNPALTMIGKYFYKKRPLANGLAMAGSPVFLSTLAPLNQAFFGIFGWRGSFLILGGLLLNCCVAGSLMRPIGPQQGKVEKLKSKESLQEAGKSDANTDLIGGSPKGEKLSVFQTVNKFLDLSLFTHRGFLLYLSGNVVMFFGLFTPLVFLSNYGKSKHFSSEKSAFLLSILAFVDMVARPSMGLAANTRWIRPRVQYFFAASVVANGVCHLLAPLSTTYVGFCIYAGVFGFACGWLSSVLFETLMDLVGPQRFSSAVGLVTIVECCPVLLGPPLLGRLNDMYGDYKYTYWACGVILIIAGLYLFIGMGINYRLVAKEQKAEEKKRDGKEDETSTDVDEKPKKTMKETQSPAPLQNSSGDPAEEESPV
Format: cell-based

For `C=CC[C@@H]1/C=C(\C)C[C@H](C)C[C@H](OC)[C@H]2O[C@@](O)(C(=O)C(=O)N3CCCC[C@H]3C(=O)O[C@H](/C(C)=C/[C@@H]3CC[C@@H](O)[C@H](OC)C3)[C@H](C)[C@@H](O)CC1=O)[C@H](C)C[C@@H]2OC` [Tacrolimus], which Day1 is on record?
Its Day1 is 0.3533 and 0.2693.

What about the Day2 of the same molecule?
Its Day2 is 0.8731 and 0.9365.

What about the Fraction of the same molecule?
The Fraction was 0.4047 and 0.2876.

What about the Offtarget_sub of the same molecule?
Its Offtarget_sub is 0.2062.

And the “Percent AZD3965” value?
Its value is 71.9076%.

Which results are given for `CC/C(=C(\c1ccccc1)c1ccc(OCCN(C)C)cc1)c1ccccc1.O=C(O)CC(O)(CC(=O)O)C(=O)O` [Tamoxifen Citrate]?
Day1: 0.3628; Day2: 0.8165; Fraction: 0.4443; Offtarget_sub: 0.2095; Z.score: -3.14

For `CC/C(=C(\c1ccccc1)c1ccc(OCCN(C)C)cc1)c1ccccc1.O=C(O)CC(O)(CC(=O)O)C(=O)O` [Tamoxifen citrate], which “Percent AZD3965” value is on record?
Its value is 46.4713%.

What does the source list for `NCCS(=O)(=O)O` [Taurine]?
Day1: 0.2305; Day2: 0.8742; Fraction: 0.2637; Offtarget_sub: 0.0852; Percent AZD3965: 76.6253%; Z.score: -3.504

For `CCOC(=O)[C@@H](N)Cc1ccc(-c2cc(O[C@H](c3ccc(Cl)cc3-n3ccc(C)n3)C(F)(F)F)nc(N)n2)cc1.O=C(O)CNC(=O)c1ccccc1` [Telotristat Etiprate], which Day1 is on record?
Its Day1 is 0.1554.

And the Day2?
Its Day2 is 0.8439.

What about the Fraction of the same molecule?
Its Fraction is 0.1841.

And the Offtarget_sub?
Its Offtarget_sub is 0.0037.

What about the Z.score of the same molecule?
The Z.score was -3.063.

What does the source list for `CO[C@H]1C[C@@H]2CC[C@@H](C)[C@@](O)(O2)C(=O)C(=O)N2CCCC[C@H]2C(=O)O[C@H]([C@H](C)C[C@@H]2CC[C@@H](OC(=O)C(C)(CO)CO)[C@H](OC)C2)CC(=O)[C@H](C)/C=C(\C)[C@@H](O)[C@@H](OC)C(=O)[C@H](C)C[C@H](C)/C=C/C=C/C=C/1C` [Temsirolimus]?
Day1: 0.0823; Day2: 0.2915

How did the Day1 turn out when `CCN(CC)C(=S)SSC(=S)N(CC)CC` [Tetraethylthiuram disulfide] was run?
The Day1 was 0.0435.

And the Day2?
The Day2 was 0.1492.

And the Fraction?
Its Fraction is 0.2916.

And the “Percent AZD3965” value?
The value was 74.5715%.

What about the Z.score of the same molecule?
The Z.score was -5.039.

Which “Percent AZD3965” value does the source give for `Cc1c(Cl)cccc1Nc1ccccc1C(=O)O` [Tolfenamic acid] here?
The value was 5.445%.

And the Z-score?
Its Z-score is -0.275.

`Cc1ccc(C(=O)c2ccc(CC(=O)O)n2C)cc1` [Tolmetin] was tested. Which “Percent AZD3965” value did it give?
The value was 2.22%.

What about the Z-score of the same molecule?
The Z-score was -0.07254.

For `Oc1cc(Cl)ccc1Oc1ccc(Cl)cc1Cl` [Triclosan], which Day1 is on record?
Its Day1 is 0.0998.

And the Day2?
The Day2 was 0.8741.

How did the Day1 turn out when `COc1ccc2c(c1)CC[C@@H]1[C@@H]2CC[C@]2(C)[C@H](NCCCCCCN3C(=O)C=CC3=O)CC[C@@H]12` [U 73122] was run?
Its Day1 is 0.3216.

What about the Day2 of the same molecule?
Its Day2 is 0.8373.

And the Fraction?
The Fraction was 0.3841.

What about the “Percent AZD3965” value of the same molecule?
The value was 59.5129%.

And the Z.score?
Its Z.score is -3.681.

What does the source list for `Cc1onc(-c2ccccc2)c1-c1ccc(S(N)(=O)=O)cc1` [Valdecoxib]?
Percent AZD3965: -4.123%; Z-score: 0.1994

Which Day1 does the source give for `CCC[C@H](NC(=O)/C(C#N)=C/c1cccc(Br)n1)c1ccccc1` [WP1130] here?
The Day1 was 0.1984.

What about the Day2 of the same molecule?
The Day2 was 0.8053.

What about the Fraction of the same molecule?
The Fraction was 0.2464.

What about the “Percent AZD3965” value of the same molecule?
The value was 80.6983%.

And the Z.score?
Its Z.score is -3.301.

Which Day1 does the source give for `COc1cc(C(=O)NS(=O)(=O)c2ccccc2C)ccc1Cc1cn(C)c2ccc(NC(=O)OC3CCCC3)cc12` [Zafirlukast] here?
Its Day1 is 0.2267.

And the Day2?
Its Day2 is 0.8008.

What about the Fraction of the same molecule?
The Fraction was 0.2831.

What about the Offtarget_sub of the same molecule?
Its Offtarget_sub is 0.0814.

And the “Percent AZD3965” value?
Its value is 72.7899%.

And the Z.score?
The Z.score was -3.328.

`Cc1cc(CC(=O)O)n(C)c1C(=O)c1ccc(Cl)cc1` [Zomepirac] was tested. Which “Percent AZD3965” value did it give?
Its value is 4.477%.

What about the Z-score of the same molecule?
Its Z-score is -0.3392.

Same assay, conditions: 10 μM

How did the Fraction turn out when `CCOC(=O)[C@@H](N)Cc1ccc(-c2cc(O[C@H](c3ccc(Cl)cc3-n3ccc(C)n3)C(F)(F)F)nc(N)n2)cc1.O=C(O)CNC(=O)c1ccccc1` [Telotristat Etiprate] was run?
The Fraction was 0.1841.

What about the “Percent AZD3965” value of the same molecule?
The value was 93.4718%.

And the Z.score?
The Z.score was -3.063.

What does the source list for `CO[C@H]1C[C@@H]2CC[C@@H](C)[C@@](O)(O2)C(=O)C(=O)N2CCCC[C@H]2C(=O)O[C@H]([C@H](C)C[C@@H]2CC[C@@H](OC(=O)C(C)(CO)CO)[C@H](OC)C2)CC(=O)[C@H](C)/C=C(\C)[C@@H](O)[C@@H](OC)C(=O)[C@H](C)C[C@H](C)/C=C/C=C/C=C/1C` [Temsirolimus]?
Fraction: 0.2823; Percent AZD3965: 70.7028%; Z.score: -3.514

Which results are given for `Oc1cc(Cl)ccc1Oc1ccc(Cl)cc1Cl` [Triclosan]?
Fraction: 0.1142; Percent AZD3965: 105.691%; Z.score: -5.31
